Results taken from the supplement of paper PMC4604168 (melanoma cell lines).
The other results are listed elsewhere or left out. Single values are uncertain, as repeats are few or missing.

Tested on: WM3619
Test: cell count relative to DMSO control; melanoma cells; higher = more viable cells
Conditions: library dose: low library concentration; 72 h
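Also: cell number obtained by counting DAPI-stained nuclei in high-throughput microscope images with image analysis software, screen run in 1,536-well plates.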

Row | SMILES | cell count
1 | Cc1cc(Nc2cc(N3CCN(C)CC3)nc(Sc3ccc(NC(=O)C4CC4)cc3)n2)n[nH]1 [Tozasertib] + CCc1ccc(CCOc2ccc(CC3SC(=O)NC3=O)cc2)nc1 [pioglitazone] (first compound 0.006 µM, partner dose 2 µM) | 95.4%
2 | CC[C@]1(O)C[C@H]2CN(CCc3c([nH]c4ccccc34)[C@@](C(=O)OC)(c3cc4c(cc3OC)N(C=O)[C@H]3[C@@](O)(C(=O)OC)[C@H](OC(C)=O)[C@]5(CC)C=CCN6CC[C@]43[C@@H]65)C2)C1 [vincristine] + COc1cc2ncnc(Nc3ccc(Oc4ccccc4)cc3)c2cc1OC [SrcI1] (first compound 0.0001 µM, partner dose 2 µM) | 44.5%
3 | N#CC[C@H](C1CCCC1)n1cc(-c2ncnc3[nH]ccc23)cn1 [ruxolitinib] + O=C(/C=C/c1cccnc1)NCCCCC1CCN(C(=O)c2ccccc2)CC1 [FK866] (first compound 1 µM, partner dose 0.01 µM) | 91.7%
4 | Cc1cc(Nc2cc(N3CCN(C)CC3)nc(Sc3ccc(NC(=O)C4CC4)cc3)n2)n[nH]1 [Tozasertib] + Cc1cc(Nc2cc(N3CCN(C)CC3)nc(/C=C/c3ccccc3)n2)n[nH]1 [ENMD2076] (first compound 0.006 µM, partner dose 0.04 µM) | 97.3%
5 | Cc1cc(Nc2cc(N3CCN(C)CC3)nc(Sc3ccc(NC(=O)C4CC4)cc3)n2)n[nH]1 [Tozasertib] + O=c1[nH]nc(Sc2ncc([N+](=O)[O-])s2)n1-c1ccc2c(c1)OCCO2 [BI78D3] (first compound 0.006 µM, partner dose 0.2 µM) | 92.5%
6 | N#CC[C@H](C1CCCC1)n1cc(-c2ncnc3[nH]ccc23)cn1 [ruxolitinib] + CN(NC(=O)CC(=O)NN(C)C(=S)c1ccccc1)C(=S)c1ccccc1 [STA4783] (first compound 1 µM, partner dose 0.006 µM) | 73.4%
7 | CC[C@]1(O)C[C@H]2CN(CCc3c([nH]c4ccccc34)[C@@](C(=O)OC)(c3cc4c(cc3OC)N(C=O)[C@H]3[C@@](O)(C(=O)OC)[C@H](OC(C)=O)[C@]5(CC)C=CCN6CC[C@]43[C@@H]65)C2)C1 [vincristine] + COC(=O)c1sccc1S(=O)(=O)Nc1ccc(Nc2ccccc2)cc1OC [GSK0660] (first compound 0.0001 µM, partner dose 1 µM) | 58.2%
8 | Cc1cc(Nc2cc(N3CCN(C)CC3)nc(Sc3ccc(NC(=O)C4CC4)cc3)n2)n[nH]1 [Tozasertib] + CC(C)CCN1c2nc(Nc3cc(F)c(O)c(F)c3)ncc2N(C)C(=O)C1C [BID1870] (first compound 0.006 µM, partner dose 0.2 µM) | 106%
9 | Cc1cc(Nc2cc(N3CCN(C)CC3)nc(Sc3ccc(NC(=O)C4CC4)cc3)n2)n[nH]1 [Tozasertib] + Cc1cn(-c2cc(NC(=O)c3ccc(C)c(Nc4nccc(-c5cccnc5)n4)c3)cc(C(F)(F)F)c2)cn1 [nilotinib] (first compound 0.006 µM, partner dose 0.2 µM) | 117%
10 | N#CC[C@H](C1CCCC1)n1cc(-c2ncnc3[nH]ccc23)cn1 [ruxolitinib] + O=C(Nc1ccccc1)c1cc([N+](=O)[O-])ccc1Cl [GW9662] (first compound 1 µM, partner dose 2 µM) | 106%
11 | CC[C@]1(O)C[C@H]2CN(CCc3c([nH]c4ccccc34)[C@@](C(=O)OC)(c3cc4c(cc3OC)N(C=O)[C@H]3[C@@](O)(C(=O)OC)[C@H](OC(C)=O)[C@]5(CC)C=CCN6CC[C@]43[C@@H]65)C2)C1 [vincristine] + CC(C)CCN1c2nc(Nc3cc(F)c(O)c(F)c3)ncc2N(C)C(=O)C1C [BID1870] (first compound 0.0001 µM, partner dose 0.2 µM) | 64.2%
12 | Cc1cc(Nc2cc(N3CCN(C)CC3)nc(Sc3ccc(NC(=O)C4CC4)cc3)n2)n[nH]1 [Tozasertib] + CCCCCCCCCCCCCCCCCCOP(=O)([O-])OC1CC[N+](C)(C)CC1 [Perifosine] (first compound 0.006 µM, partner dose 0.4 µM) | 87.8%
13 | Cc1cc(Nc2cc(N3CCN(C)CC3)nc(Sc3ccc(NC(=O)C4CC4)cc3)n2)n[nH]1 [Tozasertib] + Cc1cc(N2CCOCC2)cc2[nH]c(-c3c(NC[C@@H](O)c4cccc(Cl)c4)cc[nH]c3=O)nc12 [BMS536924] (first compound 0.006 µM, partner dose 0.2 µM) | 93.5%
14 | CC[C@]1(O)C[C@H]2CN(CCc3c([nH]c4ccccc34)[C@@](C(=O)OC)(c3cc4c(cc3OC)N(C=O)[C@H]3[C@@](O)(C(=O)OC)[C@H](OC(C)=O)[C@]5(CC)C=CCN6CC[C@]43[C@@H]65)C2)C1 [vincristine] + O=C(O)c1ccc2c(c1)nc(Nc1cccc(Cl)c1)c1ccncc12 [CX4945] (first compound 0.0001 µM, partner dose 0.4 µM) | 38.9%
